Assay results: ChEMBL document CHEMBL4888484, “Replenishing the malaria drug discovery pipeline: Screening and hit evaluation of the MMV Hit Generation Library 1 (HGL1) against asexual blood stage Plasmodium falciparum ,using a nano luciferase reporter read-out” (2022)
Out of some 150,000 compounds screened, about 540 (0.36%) showed an effect of 50% or more. The list shows a part of the results.

System: Plasmodium falciparum
Assay: Primary screen in NF54 nanoGlo assay, in single point, at 2uM, 72h; a lower Z score goes with more inhibition
Type: functional, Erythrocyte
Conditions: timepoint 72 hour

SMILES | % Inhibition [%] | Z score
COc1ccccc1CCNC(=O)c1ccc(Cn2c(C)nc3ccccc32)o1 | -3 | 0.54
CCNc1cc(N2CCN(C(=O)C(C)C)CC2)nc(C)n1 | -4 | 0.65
CCN(CC)c1ccc(NC(=O)c2nn(-c3ccc(F)cc3)cc2OC)c(C)c1 | 15 | -2.29
COCCC1(CNC(=O)NCc2ncc(C)s2)CCCC1 | -11 | 1
Cc1ccccc1OC[C@H](O)C(=O)NCCCc1nc(C)c(C)s1 | -11 | 1.64
COCc1ccc(C(=O)N2CC[C@H]2c2cccc(OC)c2)o1 | -8 | 1.42
Cc1cccc2c1N(Cc1cnc(-c3cccnc3)s1)CC2 | -11 | 2.04
CCCN1CCCN(C(=O)c2ccc(NC(=O)C3CC3C)cc2)CC1 (stereo unspecified) | -12 | 1
CCN(CC)S(=O)(=O)c1ccc2c(c1)cc(C(=O)N1CCC(C)CC1)n2C | -11 | 1.56
Cc1ccc2sc(-c3ccc(N4C(=O)C5C6CCC(C6)C5C4=O)cc3)nc2c1 (stereo unspecified) | -10 | 1.18
CCOc1ccc(NC(=O)Cn2nc(N3CCC(C)CC3)c3ccccc3c2=O)cc1 | -2 | 0.29
CC(C)N(C(=O)CN(C)CCc1ccccn1)C(C)C | 4 | -0.5
OCC1(NCc2cc(F)ccc2Br)CC1 | -18 | 2.06
CN(CCCNC(=O)C1CCN(c2ncnc3c2nc2n3CCCCC2)CC1)Cc1ccccc1 | -15 | 2.78
COCCn1nnnc1[C@]1(N2CCOCC2)CCCN(C(=O)c2ccoc2C)C1 | -2 | 0.21
O=C(CC1CCOCC1)N1CCCCC[C@H]1c1noc(-c2ccccc2)n1 | 0 | 0
NS(=O)(=O)c1ccc(CNc2nn3cc(-c4ccccc4)nc3s2)cc1 | 18 | -2.27
Cc1ccc(-n2ncc3c2CC(C)(C)C[C@@H]3NC(=O)c2n[nH]c(=O)c3ccccc23)cc1 | -1 | 0.07
Cc1ccc(CN2C(=O)c3oc4ccccc4c3OC[C@@]2(C)C(=O)NC2CCCC2)cc1 | -4 | 0.52
Cc1cc(OCc2ccccc2Cl)c2nncn2n1 | 0 | 0.03
CCS(=O)(=O)N[C@@H](C)c1ccc(C)cc1C | 4 | -0.84
Cc1cc(C)cc([C@@H](O)CNC(=O)NCC(C)(C)c2ccncc2)c1 | 30 | -4.4

SMILES | % Inhibition [%] | Z score
O=C(C1=CCC1)N1Cc2cccc(F)c2C1 | -19 | 1.64
COc1ccc(OCc2nc(C)cc(=O)n2CC(=O)Nc2cc(C(F)(F)F)ccc2Cl)cc1 | 32 | -3.6
Cc1nc2sc([C@H](c3cccs3)N3CCC4(CC3)OCCO4)c(O)n2n1 | -2 | 0.39
Cc1nc2sc3c(n2c1C(=O)N(C)C)CC[C@H](C)C3 | 8 | -0.98
Cn1nc(-c2cnccn2)cc1CNC(=O)c1ccc(Cl)s1 | 13 | -1.67
O=S(=O)(N[C@H]1[C@@H]2COC[C@@H]21)[C@H]1C[C@@H]1c1ccccc1 | -5 | 0.89
CC1CN(C(=O)c2cn(C)nc2-c2ccc(F)cc2F)CC(C)N1 (stereo unspecified) | 3 | -0.33
O=C(NC1CCS(=O)(=O)C1)C1C2CCCC21 (stereo unspecified) | 2 | -0.3
Cc1cccc(-c2nc(C)c(Cc3ccccc3)c(N3CCN(C(=O)c4cccs4)CC3)n2)c1 | -8 | 1.18
Cc1cc(C)n(-c2ccc(C(=O)N3CCCC[C@@H]3C(=O)O)cc2)n1 | -8 | 1.21
O=C(NCCN1CCC(CO)CC1)c1cn[nH]c1 | 2 | -0.34
CC(=O)c1ccc(N2CCOCC2)c(-c2cnn(Cc3ccccc3)c2)c1 | -5 | 0.98
N#Cc1cccc(S(=O)(=O)Nc2ccnn2C2CCCC2)c1 | 7 | -1.23
CNC(=O)Cc1c(Cl)cccc1Cl | 33 | -0.34
CC(C)(C)[C@@H]1CN(C(=O)c2ncncc2Cl)CCO1 | 3 | -0.54
CC(C)CC(=O)N(Cc1ccc(OS(=O)(=O)C(C)C)cc1)C(C)C | -22 | 1.9
CCO[C@@H](C)c1ncc(C(=O)NCC2CC(F)(F)C2)s1 | -9 | 1.8
CN1CCCC(CNC(=O)c2cnns2)C1c1cccs1 (stereo unspecified) | 2 | -0.33
C[C@@H]1CN(Cc2csc(-c3ccoc3)n2)CC(C(N)=O)O1 (stereo partly specified) | 4 | -0.51
Nc1nc2c(s1)CN(Cc1cc(O)c3cccc(F)c3n1)CC2 | -7 | 1.32
Cc1cc(Br)cc2c1NC(=O)C2(O)N1CCCC(C)C1 (stereo unspecified) | -5 | 0.84
